# Assay results from the RNAGym collection of RNA variant scans (doi:10.7554/elife.90254).
# The source gives no read counts; variants with many changes may rest on few reads.
# B1: LINE1-mini (parent)
# chain: GGCAGAGCUCAACACAGCGUGGCAAAGUGGCUGUGGCUAGACUGCC
# Variants of: B1
# Test: self-cleavage, relative activity (ratio to wild type); higher = more cleavage; in vitro, sequencing; the parent is a self-cleaving ribozyme
row,Variant,self-cleavage
1,A6G C13G G19U G30A A41U,0.02
2,A6U A16U G21A A41U,0.2
3,A6G G7U A16G A25C C42A,0.02
4,A6U A11C C37G,0.01
5,A6G G27U G29C,0.02
6,A6G G17A G19C A41G,0.02
7,A6G C23U U28G,0.09
8,A6G G19C U43A,0.02
9,A6G U20C C42G C46G,0.01
10,A6U A26U A41U G44U,0.08
11,A6G G21A C23G,0
12,A6G G7A C10G A14U G27U,0.02
13,A6G G22U G35C C46A,0.07
14,A6G G19C C23U U28C U38C C46A,0.03
15,A6G G22U G44C,0.04
16,A6G G19U U38C,0.06
17,A6G G27U G29C C45G,0.1
18,A6G G7U A12C,0.01
19,A6G C23U G30C G40C,0
20,A6G C23A G30A C31G,0.23
21,A6G G21U G29U C42U,0.06
22,A6G C15G C37U A39U,0
23,A6U A16C G21C A26U G35C U38C,0.02
24,A6G C15U G35A,0.08

row,Variant,self-cleavage
1,A6U A11C G40U,0.04
2,A6G G7A A16U C23G U28C G36U,0.06
3,A6U A12C G33A,0.02
4,A6U A25G G44A,0.09
5,A6G U20A G30C C31U A41C,0.02
6,A6G G27A U32A G33A C46A,0.07
7,A6U A12C G27C,0
8,A6G G7U C42U,0.07
9,A6G G35A A41U C42A,0.02
10,A6G C15U A41G,0.05
11,A6G G7U C13G G19C,0.03
12,A6G G7U C10A U34C C45G,0.01
13,A6G C18A G33C G44A,0.12
14,A6G G7A U38A,0.03
15,A6G G7U G22C G35A,0.05
16,A6G G7U G36C,0.03
17,A6U A14U G33A G40C,0.93
18,A6G U38C C46G,0.04
19,A6G U20C G36C,0.04
20,A6G C37U A41G,0.03
21,A6G C13U C45U,0.03
22,A6G U20A G21A U32G G33C U38A,0
23,A6G G33U C46G,0.14
24,A6G C13U G35U,0.19

row,Variant,self-cleavage
1,A6G C13A G35C,0
2,A6G U9A G17A G29C G40C C42G,0.02
3,A6G G17C G19A U20C G33A,0.02
4,A6G C15G C18A,0.04
5,A6G C15A C42A,0.03
6,A6G G22U A39C G40C,0.12
7,A6G G7U G17A C37G,0.01
8,A6G C18G C42G,0.01
9,A6U A14U A26U,0.82
10,A6G G7U C10G U20G G27U G44C,0.01
11,A6G U9C G36A,0.47
12,A6U A39G A41G,0.05
13,A6G C15A G22A G27A C37A,0.02
14,A6G G17C G19A C31A A39U,0.01
15,A6G G21C A39G,0.03
16,A6U A11G C13U A14U G36U C42A,0.06
17,A6G U20G G21U,0.11
18,A6U A24C G40U,0.14
19,A6G G21U G29U,0
20,A6U A12U G21U C42G,0.14
21,A6G C15A G17U A24U A26C U34A A41C,0.03
22,A6G G7U G27U G30U G40U,0.02
23,A6G C23A G35U A39C,0.4
24,A6G C18G A25U G36A,0.02

row,Variant,self-cleavage
1,A6U A12U C42G,0.08
2,A6G G7U C8G,0.11
3,A6U A12C G21C,0
4,A6G C31A G33C C45U,0.09
5,A6U A24C C42G G44A,0.01
6,A6U A16U G22C,0.03
7,A6G G17A C23U U28A G36A G40U,0.03
8,A6U A12U A14U G30A U34G,0.25
9,A6G G19A G40U,0.26
10,A6G G7A C8G C15A,0.03
11,A6G C13U A14C C31U,0.08
12,A6U A12U G21U A26G,0.09
13,A6U A14C U28G G30A A39U,0.03
14,A6U A11C C18A U28G G40C,0.01
15,A6G C15A A41G C46G,0.08
16,A6G G40A U43G,0.05
17,A6G G17U U20C C23U G27A G30A,0.14
18,A6U A41U C46A,0.57
19,A6U A11U G21U,0.14
20,A6G U9A C10A A14C G17A G40U,0.01
21,A6U A12U A16G C18U A25U A26U G27U G35A,0.02
22,A6G C15A A41U,0.05
23,A6U A24C G27U G33A U38A G40A,0.03
24,A6G U28G G36A U43G,0

row,Variant,self-cleavage
1,A6G G22A U32A,0
2,A6G C18A U32A U43A,0.11
3,A6G G7U C23U G30A,0.08
4,A6G G35U C42G,0.01
5,A6G G17U G22U C23A,1.9
6,A6G C23A A39G,0.03
7,A6U A16U C23A,0.13
8,A6G C13G G19C U20C G21C,0.01
9,A6G G17A U34A C37U,0.01
10,A6G G7U C13A G40A U43G,0.01
11,A6G C13A G19A G27C,0.01
12,A6G C13A G29U A39C C45G,0.08
13,A6G G7U A11G C18G,0.04
14,A6G C13U A16C,0.04
15,A6G G19U C31G G40C,0.06
16,A6G U9G C13G,0.23
17,A6G U28G G29A C42A,0.08
18,A6U A24U C46G,0.14
19,A6U A25G A26U U43A,0
20,A6U A14U C37A,0.08
21,A6U A16C G17C G19U,0.14
22,A6U A14U A24G G29U G33C,0.03
23,A6G U28G G35U G40U,0.1
24,A6G G7C G36U C42G,0.03

row,Variant,self-cleavage
1,A6G G22U C23A,0.09
2,A6G G21C G33C,0.05
3,A6G G19A G27C U32G G36C U38A,0.01
4,A6G G21A G27U,0.1
5,A6G U28A G33U G36A,0.03
6,A6U A14C C15A G33U G40A,0.09
7,A6G U20A A26C U38A,0.01
8,A6G U32G U34A,0.03
9,A6G G7A G44C,0.1
10,A6G C18U C23A U32A,0.05
11,A6G C13U U34G,0.05
12,A6G G7C C8U G30C C37U A39U C46A,0.11
13,A6G C18A C42U G44C,0.05
14,A6U A12G G17U U20C G21U G33A G36U,0.03
15,A6G G21C U34G,0.06
16,A6U A26U U38A A39G C45A,1.92
17,A6U A16C G30A G33A U43C,0.09
18,A6G G22A A24G A39C,0.05
19,A6G G21A G29U C37U,0.03
20,A6G G21A U34A,0
21,A6G C13A C23U G27U U32C U38A,0.03
22,A6U A24G A39C C46U,0.05
23,A6G G29A G40U,0.02
24,A6G U9A C18A C23U C31U G33U C45U,0.09

row,Variant,self-cleavage
1,A6G U20G G21U C37U C46A,0.01
2,A6G G7U U9G C13G G21U G44C,1.91
3,A6G C15G C18G C46G,0.03
4,A6G G7A C10A C13A C15U G40C A41G,0.06
5,A6G C18G C23G,0.07
6,A6G G33U G35A G40A,0.07
7,A6G G17U U20A G27C,0.05
8,A6G G30A G33A,0.03
9,A6G G27A G33C,0.03
10,A6U A24C A25G G27C,0.71
11,A6G G19C A24G,0.03
12,A6U A14C G29U C37A,0.16
13,A6G U34G U43C,0.05
14,A6U A11C G22A G30A C45U,0.04
15,A6G G22C A25U G36U C42U U43A,0.04
16,A6G U28A G29A U34A,0.11
17,A6G G35A C46A,0.01
18,A6U A12U C13U C23G,0.01
19,A6G U20C A26C G27A G29U,0.03
20,A6G U34C C37G,0.12
21,A6U A25U U32G C45G,0
22,A6G U9A G30U,0.16
23,A6U A25U A39U,0.12
